Laboratory results as given in PubChem BioAssay AID1508624 (National Center for Advancing Translational Sciences (NCATS), 2021).
Out of some 48,000 compounds screened, about 120 (0.25%) were called active. About 4% were inconclusive and are not listed. Calls follow the shape of the dose curve; as a rule, active = well fitted activation curve with a large enough effect; inconclusive = small, poorly fitted or top-dose-only effect, or another doubt; inactive = no such curve, though single readings can be large or run the other way. The list shows a part of the results.

Assay: Primary qHTS for Identification of Small Molecule Activators of Huntingtin-Antisense Promoter Activity; also: nearly all actives have a fitted effect of over 55% in size
Settings: HEK293 HTT-AS promoter firefly luciferase reporter, 24 h; series mostly up to 57.5 µM; activity change, positive = activation: at the top concentration
Procedure, shortened: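 Firefly luciferase signal from promoter-reporter HEK293 cells was scaled between vehicle (0%) and zero RLU (-100%). Compounds were tested at final concentrations of up to 57.5 uM over 24 h at 37 degrees C. PTC124 at 50 uM final served as control inhibitor.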

Activity change, positive = activation, inactive:
Cc1cccc(NC(=O)CSc2nc3ccccc3c3nc(CCc4c(C)n[nH]c4C)nn23)c1 -50.3%, COc1ccc(Nc2nc3ccccc3nc2NS(=O)(=O)c2ccc(Cl)cc2)cc1OC -41.8%, NS(=O)(=O)c1cc(C(=O)NN2C[C@H]3[C@H]4CCC(C4)[C@H]3C2)ccc1Cl 2.5%, CC(C)c1cnc2c(c1SCC(=O)O)c(=O)n(C)c(=O)n2C -6.57%, CCC(C(=O)NCc1cccc(Br)c1)n1nc(C)c2c(C)n(-c3ccccc3)nc2c1=O (configuration not stated) -18.7%, O=S(=O)(Nc1cccc(F)c1)c1ccc2[nH]c3c(c2c1)CCCCC3 12.3% [at 11.5 µM, percent change from vehicle, -100% = no light], CC(=O)Nc1ccc(NC(=O)c2cnn(-c3ccccc3)c2C2CCN(C(=O)OC(C)(C)C)CC2)cc1 -1.05%, Cc1ccc(S(=O)(=O)NCCc2csc3nc(-c4ccccc4F)nn23)cc1C -24.2%, CN(C(=O)c1c2c(nc3ccccc13)C(=O)N(C1CCCCC1)C2)c1ccc(F)cc1 -6.82%, COc1cccc(-c2nc(SCc3ccc(C)cc3)n3[nH]c(=O)cc3n2)c1 8.84%, CC(C)(C)OC(=O)N1CCC(c2c(C(=O)N3CCC(c4ccccc4)C3)cnn2-c2ccc(Cl)cc2)CC1 (configuration not stated) -28.8%, O=[N+]([O-])c1ccc(S(=O)(=O)N2CCn3cccc3C2c2ccccc2F)cc1 (configuration not stated) -32.7%, CC(NC(=O)C1CCN(S(=O)(=O)c2ccc3c(c2)oc(=O)n3C)CC1)c1ccccc1 (configuration not stated) -22.9%, CCOC(=O)c1c(C)oc2ncnc(N3CCN(c4ccccc4)CC3)c12 -34.8%, Cc1ccc(C)c(N2CCN(c3nc4ccc(Cl)cc4n4cnnc34)CC2)c1 -13%, Cc1ccccc1OCc1nnc(SCc2cc(=O)c3ccc(C)c(C)c3[nH]2)n1C -8.71%, COc1ccccc1-c1nc(S(=O)(=O)c2ccccc2)c(N2CCC(C)CC2)o1 30.8% [at 11.5 µM, percent change from vehicle, -100% = no light], Cc1ccc(-c2cc3c(n2-c2ccc(F)cc2)CC(C)(C)CC3=O)cc1 -10.2%, CC(Nc1ccc(-c2nc(-c3ccco3)no2)cc1[N+](=O)[O-])c1ccccc1 (configuration not stated) 18%, CCS(=O)(=O)c1oc(-c2ccc(F)cc2)nc1S(=O)(=O)c1ccc(Br)cc1 -94.6%, CC(C)(C)C(=O)Nc1cccc(C(=O)OCc2cc(=O)n3nc(C4CC4)sc3n2)c1 17.1%, Cc1ccccc1NC(=O)CCNC(=O)Cn1ccc2ccccc2c1=O 1.75%, COc1cc(NC(=O)c2cc3ccc4cccnc4c3[nH]2)cc(OC)c1OC 1.74%, COc1ccccc1N1CCN(S(=O)(=O)CCNC(=O)C2CC(=O)N(c3ccccc3)C2)CC1 (configuration not stated) -5.8%, CCOC(=O)c1ccc(NC(=O)CSc2nc(-c3cccs3)cc(C(F)(F)F)c2C#N)cc1 -16.3%, CCS(=O)(=O)c1nc(S(=O)(=O)c2ccc(C)cc2)c(NCC(C)C)s1 -27.5%, CCOC(=O)N1CCc2c(sc(NCc3sccc3C)c2C(=O)Nc2cc(Cl)ccc2OC)C1 4.26%, CC(=O)C1=C(c2ccc(Cl)c(Cl)c2)N(C(C)=O)n2cnnc2S1 -82.7%, O=C1CN(C(=O)COc2ccc(Cl)cc2)C(c2ccc(F)cc2)c2cc(Br)ccc2N1 (configuration not stated) -43.3%, Cc1ccc(NC(=O)N2CCN(Cc3nc4ccc(C)cc4o3)CC2)c(Cl)c1 -24.4%, CCOc1ccccc1Nc1nnc(-c2cc3cc(Cl)ccc3oc2=O)s1 -16.9%, O=C(CNC(=O)c1ccccc1F)OCc1cc(=O)n2nc(C3CC3)sc2n1 -2.73%, CCC(=O)N1CCc2cc(CNC(=O)c3ccc(C#N)cc3)ccc21 -24.8%, CC(NC(=O)c1cc2ccccc2o1)c1ccccc1 (configuration not stated) -22.9%, CCOc1ccc(NC(=O)CSC2=Nc3ccccc3C3=NC(Cc4ccccc4)C(=O)N23)cc1 (configuration not stated) -0.265%, CCOC(=O)c1c(C)[nH]c(C)c1S(=O)(=O)N1CCCC(C(=O)Nc2cccc(C)n2)C1 (configuration not stated) -14.2%, COc1ccc(-c2nc3sc(CCNC(=O)C(=O)Nc4ccc(C)c(F)c4)c(C)n3n2)cc1 -10.9%, CCCn1nc(NC(=O)c2cccc(Cl)c2)c2cc3cccc(C)c3nc21 0%, CCc1ccc(S(=O)(=O)c2cn(C)c3cc(F)c(F)cc3c2=O)cc1 1.45%, COc1ccccc1CN1CCN(C2CCN(C(=O)Nc3ccccc3)CC2)C(=O)C1=O 6.26%, Cc1ccc(NC(=O)Cn2c(-c3nonc3N)nc3ccccc32)cc1C -6.75%, NC(=O)C1CCCc2c1[nH]c1ccc(Cl)cc21 (configuration not stated) -28.4%, CCc1ccc(NC(=O)C2CCCN(S(=O)(=O)c3cccc4nonc34)C2)cc1 (configuration not stated) -14.9%, Cc1cc(C)c(NS(=O)(=O)c2cc(-c3cnc(C4CC4)o3)ccc2C)c(C)c1 -14.8%, COc1ccc(CNC(=O)C2CCN(S(=O)(=O)c3ccc4nc5c(c(C(=O)O)c4c3)CC(C)CC5)CC2)cc1 (configuration not stated) -14.6%, CN1C(=O)Cc2cc(S(=O)(=O)CCC(=O)N3CCN(c4cccc(Cl)c4)CC3)ccc21 -23.5%, COc1cccc(NS(=O)(=O)c2cc3c4c(c2)C(C)C(=O)N4CCC3)c1 (configuration not stated) -7.08%, COc1cc(-c2noc(C3CC(=O)N(c4cc(C)ccc4C)C3)n2)cc(OC)c1OC (configuration not stated) -7.96%, Cc1ccsc1CCN1C(=O)N(c2ccc(F)cc2)C(=O)C1CC(=O)Nc1ccccc1 (configuration not stated) -6.08%, CCOc1ccc(NC(=O)Cn2cnc3c(oc4ccccc43)c2=O)cc1 10.3%, Cc1cc(C)n(-c2nc(C)c(C)c(=O)n2CC(=O)Nc2ccc(Cl)c(Cl)c2)n1 -3.92%, COc1ccc(-c2nnc(SCC(=O)Nc3cccc(Cl)c3C)nc2-c2ccc(OC)cc2)cc1 -14.1%, COc1ccc(NC(=O)CCNS(=O)(=O)c2ccc3c(c2)CCN3C(=O)C2CC2)cc1Cl -39.5%, CCS(=O)(=O)c1cccc(-c2cc(C(=O)NC3CCN(C)CC3)c(C)c3[nH]c4ncc(C)cc4c23)c1 -37.5%, Cc1cc(C)c(NC(=O)Cn2nnc(C(=O)Nc3ccc(F)cc3F)c2N)c(C)c1 4.7%, COc1ccc(-c2cc(OC(=O)c3cccc(C)c3)c3c(C)oc(C)c3c(=O)c2)cc1 -19.6%, Cc1ccc(CNc2ncnc3c2cnn3-c2ccc(C)cc2C)cc1 -20.4%
